Screen size: about 45,000 compounds; about 65 (0.1%) were called active. Calls follow the shape of the dose curve; as a rule, active = well fitted activation curve with a large enough effect; inconclusive = small, poorly fitted or top-dose-only effect; inactive = no such curve, though single readings can be large or run the other way. The list shows a part of the results.
These molecules were tested against Galactocerebrosidase (Homo sapiens) (UniProt P54803) (assay: A Novel Cell-Based Assay to Identify Small Molecules for B -Galactocerebrosidase). Settings: 145M-Twi-hGALC-G270D cells (Twitcher mouse brain line with human GALC G270D), HMU-beta-Gal fluorescence, 48 h; series mostly up to 57.5 µM; activation: at the top concentration.
Chain of UniProt P54803 (P54803 whole entry, looked up): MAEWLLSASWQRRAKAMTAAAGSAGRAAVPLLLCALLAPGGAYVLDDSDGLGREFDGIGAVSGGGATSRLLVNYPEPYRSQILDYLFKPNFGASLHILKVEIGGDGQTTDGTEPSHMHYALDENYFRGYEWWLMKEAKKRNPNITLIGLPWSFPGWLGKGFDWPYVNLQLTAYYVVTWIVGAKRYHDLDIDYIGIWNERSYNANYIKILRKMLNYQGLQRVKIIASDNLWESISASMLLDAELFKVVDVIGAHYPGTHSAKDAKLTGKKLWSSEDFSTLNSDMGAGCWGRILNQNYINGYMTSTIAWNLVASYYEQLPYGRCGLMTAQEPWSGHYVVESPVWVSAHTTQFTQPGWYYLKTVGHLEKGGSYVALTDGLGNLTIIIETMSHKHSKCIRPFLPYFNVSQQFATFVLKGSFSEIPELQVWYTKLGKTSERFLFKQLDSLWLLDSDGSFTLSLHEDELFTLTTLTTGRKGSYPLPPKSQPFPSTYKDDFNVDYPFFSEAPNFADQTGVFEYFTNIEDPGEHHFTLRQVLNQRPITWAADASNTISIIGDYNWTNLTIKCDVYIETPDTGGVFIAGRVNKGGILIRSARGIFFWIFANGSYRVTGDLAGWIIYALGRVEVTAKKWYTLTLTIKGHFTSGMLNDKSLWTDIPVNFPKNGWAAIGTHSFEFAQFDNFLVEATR
In short: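 Mutant human GALC (G270D), stably expressed in a Twitcher mouse brain cell line lacking endogenous GALC, is measured in live-treated cells via 6-hexadecanoylamino-4-methylumbelliferyl-β-galactoside hydrolysis (0.1 mM final, pH 5.2) with fluorescent detection.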
Also: nearly all actives have a fitted effect of over 65% in size.
For activation in this document: 0% is about no effect.
Potency is read from the fitted curve at half-maximal effect.

Compound	activation	Potency
CC(=O)N1CCCc2cc(S(=O)(=O)N3CCN(c4cccc(C(F)(F)F)c4)CC3)ccc21	inactive: -16%	
Cc1ccc(C)c(NC(=O)C(c2ccccc2)N2Cc3ccccc3C2=O)c1 (stereo not given)	inactive: -14.5%	
COC(=O)c1ccccc1NC(=O)Cn1c(=O)n(CCCC(=O)NCc2ccccc2OC)c(=O)c2ccccc21	inactive: -1.16%	
O=C(CCC1N=C2c3ccccc3N=C(SCc3ccc(F)cc3)N2C1=O)NC1CCCCC1 (stereo not given)	inactive: -8.17%	
COc1cc2cc(CNc3ccccc3)c(=O)n(CC(=O)Nc3cc(C)cc(C)c3)c2cc1OC		active: 39.8 µM
Cc1cc(C)cc(-n2ccn(CC(=O)Nc3ccccc3F)c(=O)c2=O)c1	inactive: -8.44%	
CC(=O)c1ccc(NC(=O)c2nc3nc(C)cc(C(F)F)n3n2)cc1	inactive: -9.45%	
CCOc1ccc(-n2nc(CO)c(C(=O)NCc3cccc(OC)c3)n2)cc1	inactive: -11.7%	
CCCCc1nc2ccccc2n1CC(=O)N(COCC)c1c(C)cccc1CC	inactive: -8.01%	
Cc1cc(C)cc(NC(=O)C2CCN(S(=O)(=O)c3ccc4c(c3)oc(=O)n4C)CC2)c1	inactive: -10%	
CCOC(=O)c1ccc(NC(=O)CSc2nc3c([nH]c4ccccc43)c(=O)n2C)cc1	inactive: -5.95%	
Cc1cn2c(=O)cc(COc3ccccc3NC(=O)c3ccc(Cl)cc3)nc2s1	inactive: 20.3%	
Cc1ccc(NC(=O)C2CCC(CNS(=O)(=O)c3ccc4c(c3)CCCC(=O)N4)CC2)c(C)c1 (stereo not given)	inactive: -9.38%	
Cc1ccccc1-c1noc(-c2cc(-c3ccc(F)cc3)n[nH]2)n1	inactive: -11.4%	
COc1ccc(/C=C/C(=O)Nc2ccc3nc(N4CCCCC4)cc(C)c3c2)cc1OC	inactive: -9.26%	
CC(C)c1ccc(Nc2c(-c3ccco3)nc3ccccn23)cc1	inactive: -8.58%	
COc1cc(NC(=O)c2ccc(-n3cnc4cccnc43)cc2)cc(OC)c1	inactive: -23.8%	
Cc1nn(C)c2c1c(C(F)(F)F)cc(=O)n2CC(=O)N1CCN(c2ccccc2F)CC1	inactive: -5.29%	
CC(=O)N1CCc2c(sc3c2c(=O)n(-c2cccc(Cl)c2)c(=O)n3Cc2ccc(F)cc2Cl)C1	inactive: -13.6%	
O=C(Cn1c(=O)n(-c2ccccc2)c(=O)c2c3c(sc21)CCCC3)Nc1ccccc1	inactive: 3.35%	
CCOC(=O)c1c(NC(=O)/C=C/c2ccc(OCC)cc2)sc2c1CCCC2	inactive: -11.4%	
O=C(NCc1ccc2c(c1)CCN2C(=O)c1ccc(Cl)cc1)c1ccco1	inactive: -12.6%	
Cc1cc(-c2ccc(C)c(S(=O)(=O)N3c4ccccc4CC3C)c2)on1 (stereo not given)	inactive: -20.2%	
CCOc1ccc(-c2cc(C(=O)NCCc3ccccc3)c3c(-c4ccc(C)cc4)[nH]nc3n2)cc1	inactive: -9.32%	

Compound	activation	Potency
Oc1ccccc1-c1nnco1	inactive: -11.2%	
Cc1cc(C)c2c(=O)c3c(oc2c1)C(=O)N(Cc1ccco1)C3c1ccc(F)cc1 (stereo not given)	inactive: -7.66%	
CCN(CC)c1cc(C)c2cc(NC(=O)/C=C/c3ccccc3OC(C)C)ccc2n1	inactive: -15.2%	
Cc1ccc(Oc2nc3ccccn3c(=O)c2/C=C(\C#N)c2nc3ccccc3s2)c(C)c1	inactive: -11.8%	
CCN(CC)c1ccc(NS(=O)(=O)c2ccc(-c3coc(C)n3)cc2)c(C)c1	inactive: -38.1%	
Cc1ccc(CC(=O)Nc2c(C(=O)N3CCN(c4ccccc4)CC3)oc3ccccc23)cc1	inactive: -16%	
Cc1cc(N2CCC(C(=O)Nc3ccc(Cl)cc3)CC2)n2nc(C)c(-c3ccc(Cl)cc3)c2n1	inactive: -3.76%	
O=C(O)CSc1nnc(-c2ccc(O)cc2)o1	inactive: 4.1%	
CCOC(=O)c1noc2nc(C)n(CC(=O)Nc3ccc(OC)c(Cl)c3)c(=O)c12	inactive: -8.06%	
CCCCN(CC)CCNC(=O)C1CCN(c2nnc(C)c3c(C)n(-c4ccc(C)cc4)nc23)CC1	inactive: -3.59%	
CCOC(=O)CSc1nnc2n(-c3ccccc3)c(=O)c3c4c(sc3n12)COC(C(C)C)C4 (stereo not given)	inactive: -17.9%	
Cc1ccc(-n2nc(C)c3c(C(=O)O)cc(C)nc32)cc1	inactive: -7.62%	
CCc1c(C)nc2nncn2c1NCc1ccc(OC)cc1	inactive: -3.61%	
Cc1cc2c(cc3c(=O)n(CC(=O)NCc4ccccc4Br)ncn32)s1	inactive: -13.3%	
Cc1ccc(Cc2c(C)nc3c(-c4ccccc4)c(C)[nH]n3c2=O)cc1	inactive: -10.1%	
O=C(CSc1nc(=O)[nH]c2c1CCC2)NCc1ccc(Cl)cc1	inactive: -11%	
Cc1cccc(C)c1OCCn1c(C2CC(=O)N(Cc3ccc(F)cc3)C2)nc2ccccc21 (stereo not given)	inactive: -30.6%	
CC(CNC(=O)c1ccc2c(c1)nc1n2CCOC1)c1ccccc1 (stereo not given)	inactive: -20.5%	
O=C(CCS(=O)(=O)c1cccc2nonc12)Nc1cccc(F)c1	inactive: -18.1%	
CC(C)NC(=O)CSc1nc2ccccc2c(=O)n1Cc1ccc(C(=O)NC(C)C)cc1	inactive: -17.7%	
Cc1cccc(CSc2nc3cccnc3n2Cc2ccc(C(=O)NCc3ccco3)cc2)c1	inactive: 2.28%	
COC(=O)c1ccc(C(=O)Nc2ccc(-c3nc4cc(NC(=O)c5ccc(C(=O)OC)cc5)ccc4o3)cc2)cc1	inactive: -8.16%	
COc1ccc(CN(Cc2ccco2)c2cnc(S(C)(=O)=O)nc2C(=O)Nc2ccc(C)c(C)c2)cc1	inactive: 1.65%	
Cc1ccc(Cl)cc1NC(=O)Cn1cc2c(n1)CCCCC2	inactive: -13.1%	

Compound	activation	Potency
CCSc1ncc(Cl)c(C(=O)Nc2ccc(S(=O)(=O)Nc3nccc(C)n3)cc2)n1	inactive: -15.2%	
Cc1noc2ncnc(N3CCN(c4ccccc4F)CC3)c12	inactive: -28.4%	
COC(=O)c1ccc(NC(=O)c2cccc3c2C(=O)N(C2CCCCC2)C3)cc1	inactive: -13.4%	
O=C(O)c1cccc(-c2noc(-c3ccccc3F)n2)c1	inactive: -10%	
COC(=O)CC1Oc2ccc(C)cc2-n2cc(-c3ccc(F)cc3)nc21 (stereo not given)	inactive: -9.18%	
O=C(CCC1N=C2c3ccccc3N=C(SCc3ccccc3Cl)N2C1=O)N1CCN(c2ccccc2)CC1 (stereo not given)	inactive: -20.7%	
Nc1ccc(S(=O)(=O)Nc2nccs2)cc1	inactive: -11.4%	
CC(CNC1CCCCC1)OC(=O)c1ccccc1 (stereo not given)	inactive: -14%	
CC1(C)CC(=O)c2cc(-c3nc(-c4ccc(Cl)cc4)cs3)c(=O)n(-c3ccc(F)cc3)c2C1	inactive: -13.2%	
COc1ccc(Cn2ccc3nc(C)c(C(=O)NCc4ccc(C)cc4)cc3c2=O)cc1	inactive: -6.56%	
Cc1cccc(OCCSc2nc3ccc(NC(=O)COc4ccccc4F)cc3s2)c1	inactive: -11.6%	
Cc1cc(Cl)ccc1NC(=O)CCn1nc(C)c2c(C)n(-c3ccccc3)nc2c1=O	inactive: -19.7%	
COc1ccc(-c2oc3ncn4nc(-c5ccccc5Cl)nc4c3c2-c2ccc(OC)cc2)cc1	inactive: -8.39%	
CCOc1ccc(CCNC(=O)CCN2N=C(c3ccc(OC)cc3)CCC2=O)cc1OCC	inactive: 2.59%	
COc1ccc(N2CCN(C(=O)c3cc(NS(=O)(=O)c4ccc(F)cc4)ccn3)CC2)cc1	inactive: -1.63%	
CCCSCCCNC(=O)c1cc2n(n1)CCCN(Cc1ccc(C)cc1)C2=O	inactive: -11%	
Cc1ccc(C)c(NC(=O)CSc2ncc3c(n2)-c2cc(Cl)ccc2N(Cc2ccccc2F)S3(=O)=O)c1	inactive: -11.5%	
Cc1ccc(C)c(N2CCN(C(=O)CCn3c(=O)[nH]c4ccccc4c3=O)CC2)c1	inactive: -5.31%	
O=S(=O)(c1ccc(F)cc1)N(Cc1nc(-c2ccccc2)no1)C1CCCCC1	inactive: -21.6%	
CCOC(=O)c1ccc(NC(=O)COc2cccc3c(=O)n(C)ccc23)cc1	inactive: 2.51%	
Cc1oc(-c2ccccc2Cl)nc1CS(=O)CC(=O)NCc1ccccc1Cl (stereo not given)	inactive: -17.5%	
COc1ccc(NC(=O)CN2CCN(CC(=O)Nc3ccccc3F)CC2)cc1OC	inactive: -21.7%	
Cc1ccc(-n2nc(C(=O)Nc3ccc(Br)cc3C)c(=O)n(C)c2=O)cc1	inactive: -12.5%	
CCOc1ccc(NC(=O)c2sc3nc4c(cc3c2N)CN(Cc2ccccc2)CC4)cc1	inactive: -6.9%	

Compound	activation	Potency
COc1ccccc1CNC(=O)CSCc1nc(-c2ccc(OC)c(OC)c2)oc1C	inactive: -13.5%	
COC(=O)c1ccc(NC(=O)C(=O)NCCc2csc(-c3ccc(C(F)(F)F)cc3)n2)cc1	inactive: -13.3%	
Cc1cc(Cl)ccc1OCC(=O)N1CCC(c2nc3ccccc3o2)CC1	inactive: -11.7%	
Cc1ccc(CN(Cc2cccn2-c2nnc(N3CCCC3=O)s2)C(=O)Nc2ccc(F)cc2)cc1	inactive: -3.08%	
CCOc1ccc(NC(=O)N2CCC(c3ccc(C)cc3)C2)cc1 (stereo not given)	inactive: 2.61%	
O=C(COc1ccc(F)cc1)Nc1ccc(C(=O)OCc2cc(=O)n3nc(C4CC4)sc3n2)cc1	inactive: -19.7%	
CCOC(=O)c1ccccc1NC(=O)NCc1cccn1Cc1ccc(F)cc1	inactive: 6.91%	
COc1ccccc1CNC(=O)C1CCN(S(=O)(=O)c2ccc3[nH]c(=O)ccc3c2)CC1	inactive: -18.8%	
CCCn1c2ccccc2c2cnn(CC(=O)NCc3ccc(OC)cc3)c(=O)c21	inactive: 5.02%	
COc1ccc(OC)c(NC(=O)CCn2cccn2)c1	inactive: -2.86%	
Cc1ccc(Cn2ccnc2SCC(=O)Nc2ccccc2C(F)(F)F)cc1	inactive: -14.3%	
CC(=O)c1ccc(N2CCN(c3nc4ccccc4c4nc(-c5cccc(C)c5)nn34)CC2)cc1	inactive: -13.7%	
CCOc1ccc(NC(=O)Cn2nc(SC)c(S(=O)(=O)c3ccccc3)c2N)cc1	inactive: -11.7%	
O=C(CCC1CCN(Cc2ccccc2)CC1)c1ccc2c(c1)NCCCC2	inactive: -18.9%	
CCOc1ccc(NC(=O)Cn2c(=O)n(Cc3ccco3)c(=O)c3ccc(C(=O)NC4CCCC4)cc32)cc1	inactive: 7.81%	
CCc1nn(CC(=O)N2CCN(c3cccc(Cl)c3)CC2)c(=O)c2cc3sccc3n12	inactive: 3.64%	
Cc1ccccc1N=Nc1ccc(N=Nc2c(O)ccc3ccccc23)c(C)c1	inactive: -15.3%	
COc1cc(OC)c(NC(=O)Cn2c(SCc3ccccc3F)nc3cccnc32)cc1Cl	inactive: -8.2%	
O=C1CC(c2cccc(Cl)c2Cl)c2cc3c(cc2N1)OCCO3 (stereo not given)	inactive: 9.93%	
Cc1c(Cl)cccc1-n1ncc(C(=O)N2CCC(C)CC2)c1C1CCN(C(=O)OC(C)(C)C)CC1	inactive: 1.09%	
Cc1cc(C)nc(NS(=O)(=O)c2ccc(NC(=O)c3nc(SC(C)C)ncc3Cl)cc2)n1	inactive: -6.88%	
Cc1ccc(NC(=O)C2CCN(S(=O)(=O)c3ccc4c(c3)CCCN4C(=O)C3CCC3)CC2)cc1	inactive: -3.07%	
O=C(CCS(=O)(=O)c1nc(-c2cccs2)cc(C(F)(F)F)n1)Nc1ccc(F)c(Cl)c1	inactive: -25.8%	

— PubChem BioAssay AID1159614 (National Center for Advancing Translational Sciences (NCATS), 2016)
